Read counts are not given, so values of variants with three or more changes are uncertain.
B1: LINE1-mini (parent)
chain: GGCAGAGCUCAACACAGCGUGGCAAAGUGGCUGUGGCUAGACUGCC

Variants of: B1
Experiment: self-cleavage, relative activity (ratio to wild type); higher = more cleavage; in vitro, sequencing; the parent is a self-cleaving ribozyme

Variant | self-cleavage
A14G G33U U43C | 0.04
A14U G29C U38C | 0.02
A14U A16U G36U A39G | 0.02
C15A A16C G19U G21U U32A C42A U43A | 0.01
C15A C23A G35U | 0.03
A14U A24U G40A C46U | 0.05
A14U A16G G27U | 0.23
A14U G19A G22U U32G G36C | 0.08
A14U U32G U38G U43A | 0.01
A14U G30U C31A | 0.04
A14U C18A U20G U38A | 0.01
A14U U32C G33U | 0.05
A14U G17U C45A | 0.01
A14G G30U G44A | 0.45
C15A A26U C31A | 0.01
A14U G21U G36A | 0.14
C15A C23A C45U | 0.21
C15A C31A U34G | 0.01
A14G U20G A24G C37A G44U | 0.03
A14G G33U G44A | 0.03
A14G G29U G35A | 0.07
A14U G29C G35C G40A | 0.07
C15A C31U G33A G40U C46A | 0.01
A14G U20A G30A G35U | 0.04

Variant | self-cleavage
A14G G22U A25U | 0.27
A14U A25C G40A | 0.04
A14G G17U C42U C46A | 0.01
A14G G17C U34G G44C | 0.01
A14G G35A G44A | 0.27
A14G C31A U34G | 0.06
A14U C23U G35U | 0.05
C15A G17A G21U C31U U34C | 0.02
A14U G17A G35U U43G | 0.01
C15A A26C C31A C37G | 0.02
C15A G17A G29A | 0.11
A14U C31A A39U A41G | 0.14
A14U A25U G40U C45G | 0.03
A14U G30U C31A U38C | 0.08
A14G G19C G29A U32C | 0.03
C15A A16G G36U G40C | 0.01
A14U C15U A25G C42A | 0
C15A C31G C42U | 0.03
A14U G21A G30A | 2.15
A14U U20A G36C | 0.02
C15A C23G C46U | 0.23
A14G C23G G27C | 0.13
A14G G22A G30C A41G | 0.15
A14U A25G G33C A39C | 0

Variant | self-cleavage
C15A C23U C37G | 0.02
A14G G21A C31U | 0.09
A14U A24C C31A | 0.01
A14U C18A C31A U34C | 0.05
A14U A16U G44A | 0.03
A14U C15A G44U | 0.03
A14U C15G G21U G29U C46A | 0
A14U G22C G27C G30C G35U | 0.12
A14G U20C C37U | 0.02
C15A G17A C18U G36C A41U | 0.17
A14G G17A G19A A24C G35C A39C | 0.01
C15A A16C G27A G36A | 0.22
A14U G30C A41G | 0.07
C15A A16C C23A A25U A41C | 0.06
A14U G29U C31G G33A U34C G44C | 0.02
C15A C18G U34A G44A | 0.02
A14G U38A C45U | 0.28
A14U C31A G33A | 0.01
A14U U20C A41G | 0.04
A14G G21U C42U | 0.17
C15A C31U G35U G36U A39U C42G | 0.02
A14U G22C A39U | 0.12
A14U C23A G27C G33U U34C A39G U43A C46A | 0.06
C15A A16U G27A U38G | 0.03

Variant | self-cleavage
A14U G19U A41G | 0.02
A14U G17A A24C | 0.07
A14U C15U U20C G21U | 0.12
A14U A16C A26G A39C C42G C45U | 0.03
C15A G17C C23U | 0.13
C15A C37U A39G | 0.02
A14U G17U G40A | 0
A14G C31G G33U C42G U43G | 0.02
C15A A16G C18U U28C G29A C31U U34C G35U G40A | 0.03
A14U A26C U32A | 0.03
A14U C23U U28C A41G | 0.11
A14U G21A G22U U28C | 0.64
C15A A16C U20C G30A | 0.03
A14G G21U U32A U34G | 0.03
A14G C31G U34G | 0.17
A14U G21U G29U C46G | 0.86
A14U G19C G33A | 0.11
C15A C37A C42A | 0.01
A14U G30C G44U | 0.03
A14G U28C G29A | 0.22
A14G G17U G40U | 0.34
A14G U20A C42U | 0.05
A14U G19A U28A A39G | 0.06
C15A A24C C31G U34G | 0.02

Variant | self-cleavage
A14U A39G G40U | 0.11
A14U G36A C42G U43A | 0.01
A14U A16U U38C G40U | 0.07
A14U C31A G35C | 0.06
A14U G17U G22U | 0.12
A14G G19A G29A | 1.29
A14U C15G A25C | 0.02
A14U C15A U20C C31A | 0.09
C15A A26G G30U U34A | 0.31
A14U A24C C42G C45U | 0.04
A14G U32C C45A C46U | 0.02
A14U U20G C42U | 0.07
A14G G19A U32C G33A | 0
A14U A25U U28A | 0.14
A14U C18A U20C G29C | 0.06
C15A C23U A24U G30A | 0.05
A14U A16G A25G G36C | 0.01
C15A A26C A41U | 0.1
C15A A25G A26G G29U | 0.09
C15A A39U G44U | 0.03
A14G G44C C45G | 0.08
A14U C18A C46G | 0.06
C15A A16G G21U C23U G36A | 0.09
C15A C18G G22U C31A | 0.11

Variant | self-cleavage
C15A C23A U34A A41U | 0.18
A14G C31U G33C | 0.02
A14G U20G G21U | 0.33
A14U C23G A24G C31G U32A | 0.02
A14U G17U G36A | 0.06
C15A A39U G40U | 0.05
A14U A25C A39C | 0.11
C15A G17C C18A U28G C37A | 0.03
A14U G40U C45U | 0.02
A14U G22U A24U | 0.24
A14G U20A C45U | 0.37
A14U G19U C37U A41U | 0.02
C15A C18A A26U G33A | 0.05
A14G G19C C23A | 0.11
C15A A16G G21C A26C A39C | 0
A14U C37G U38A | 0
A14U G22U G30A G36A C42A | 0.02
C15A C18U C23A G30U | 0.04
C15A C18U U43A | 0.09
A14G U28G G33U C46U | 0.02
A14U G17A U20A G27A C31A A41U | 0.02
C15A C18A A24G | 0.03
A14G G21C U32A A41U C42U | 0
A14U G35A C42G | 0

Variant | self-cleavage
C15A C31A C37A U43A | 0.1
A14U G17A C18U U28A G33U | 0.03
A14U G36C U38G | 0.08
A14U A24G G27A A39C | 0.03
A14U G22A A26G G35A U43C | 0.03
A14U C18A G19A C23A | 0.13
C15A C31U G33U | 0.13
A14G G17A G30C U34A G44C | 0.06
A14U G21U C45U | 0.95
A14G G17C U20C A26C | 0.28
A14G G27A U32G | 0.04
A14U C23A U38C C45A | 0.16
C15A C37G C45U C46A | 0.02
C15A G17C C23U U28A C31G A39G A41G | 0
A14U A41C G44U | 0.37
A14U A16U A25C | 0.05
A14G G22A A25G U34A | 0.03
A14U U20C U28A A39U C42A | 0.05
C15A C18G G36C | 0.02
A14G C23A U38A | 0.2
A14U G33A G44A | 0.03
A14G G17C U20C G33A G44A | 0.05
A14G G29A G33A U38A | 0.02

From the RNAGym collection of RNA variant scans (doi:10.7554/elife.90254)
